Laboratory results from article PMC5836133.
The other results are listed elsewhere or left out. At the low end of the ranking the order means little.

System: T1, GST-NbGlk1(82-244)
T1 sequence: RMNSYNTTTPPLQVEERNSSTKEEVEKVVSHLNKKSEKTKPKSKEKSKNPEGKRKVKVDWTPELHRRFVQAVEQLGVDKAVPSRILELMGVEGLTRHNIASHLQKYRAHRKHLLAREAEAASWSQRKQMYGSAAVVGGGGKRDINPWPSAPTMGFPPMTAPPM
Test: protein-binding microarray;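 also: rank-based score ranging −0.5 to +0.5 with E above 0.45 taken as significant binding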
Details: NbGlk1 is a Golden2-like transcription factor of Nicotiana benthamiana; high values mean tight binding; most listed sequences are background and not binding sites; double strand, one strand shown

Row | Sequence | binding signal [E-score]
1 | AATCTAAG | 0.402
2 | AACTCAGT | -0.106
3 | ACCTCTCG | -0.121
4 | ACGGTGTG | -0.136
5 | AATAGGCT | -0.0752
6 | ACGATTTG | 0.264
7 | ATAATTTC | 0.227
8 | AAGTACTC | -0.0934
9 | CAATGAGC | -0.259
10 | ATGCGAAT | 0.337
11 | ACATAGAG | -0.00584
12 | AACTGGGA | -0.201
13 | AGGCCCAA | -0.368
14 | CAACGGTA | 0.0174
15 | ACTTAATA | 0.129
16 | ATCACGTA | 0.257
17 | ACACTATA | 0.085
18 | ATCAGGTG | 0.0759
19 | AGACTAGG | -0.128
20 | AGCCTCCT | -0.199
21 | ACAGAACG | -0.07
22 | CACCAATG | -0.194

Row | Sequence | binding signal [E-score]
23 | ACTCTGCG | 0.0535
24 | ACCCGAGC | -0.118
25 | ACACAGCG | -0.11
26 | ATAGTTCC | -0.02
27 | AGAGTGAC | -0.128
28 | AAAATGAC | -0.0701
29 | ATGCAGTG | 0.0328
30 | CACCGCGG | -0.195
31 | CACCCAGG | -0.273
32 | AAAAGCTC | -0.112
33 | AAGGGGAC | -0.252
34 | ACAGCAAG | -0.0307
35 | ATCTCTTA | 0.337
36 | AAGTCCTA | -0.141
37 | AAAGTTGT | -0.0761
38 | CAAAGCAA | 0.0857
39 | AAACAAGA | 0.0192
40 | CAAGGGAG | -0.194
41 | AAACTTAA | 0.0893
42 | AAGTCCCG | -0.16
43 | ATCCAGCA | 0.25
44 | AAGACCCA | -0.281

Row | Sequence | binding signal [E-score]
45 | AAACGCCC | -0.212
46 | AAGAACGA | -0.0638
47 | AGTTCCAG | -0.0456
48 | AAGGGGTG | -0.222
49 | AAGATGTG | -0.137
50 | AAAGATGA | -0.034
51 | ACGGGAGA | -0.0968
52 | AATAAGCT | 0.0279
53 | AAGGCCTG | -0.313
54 | AATATGCG | 0.172
55 | AAATTCAT | 0.0564
56 | CAAGGGGA | 0.0351
57 | ATTTGGTA | 0.177
58 | ACTTGCGA | 0.162
59 | CAAGGAAA | 0.0213
60 | AATGTTAC | -0.024
61 | ACGTCCTG | -0.205
62 | CACTAAAA | 0.0918
63 | AATGGTAT | 0.0957
64 | CACTCGCG | -0.0641
65 | ATGTCCTC | -0.195
66 | AGTATAAA | 0.127

Row | Sequence | binding signal [E-score]
67 | AACGTAGG | -0.0755
68 | ATTTGTTA | 0.237
69 | CAACACTC | -0.089
70 | ATTCACCG | 0.0709
71 | ACTATAGT | 0.00472
72 | AAGTCGCA | -0.0788
73 | ACGACGCG | -0.115
74 | ACAACCCA | -0.09
75 | AAGGAGAA | -0.00191
76 | ACCCTAGC | -0.0823
77 | AGTGGCGG | -0.109
78 | AGACGACG | -0.219
79 | CAACGCCC | -0.201
80 | ACTAGGTA | -0.106
81 | ATGTACGA | 0.0471
82 | AAATCGTA | 0.373
83 | ACGCTCAC | -0.144
84 | AATAGTCT | -0.0165
85 | ACAAGTCA | -0.103
86 | AGGTGAAT | -0.0087
